Our source for the mass density values is a compilation of properties of binary mixtures (doi:10.1021/acs.iecr.0c01893).

The densities may have been worked out from excess volumes.

The nature of this series: xn = mol fraction of the nth substance listed. The following applies: 100 kPa.

Take `C[N+](C)(C)CCO.O=S(=O)([O-])C(F)(F)C(F)(F)C(F)(F)C(F)(F)F` + O=C(O)C(F)(F)C(F)(F)C(F)(F)C(F)(F)F: the mass density is 1633.6 kg/m3 (293.15 K, x1 = 0.5); 1621 kg/m3 (303.15 K, x1 = 0.5); 1608.7 kg/m3 (313.15 K, x1 = 0.5); 1596.4 kg/m3 (323.15 K, x1 = 0.5).

Consider `CCCC[N+](CCCC)(CCCC)CCCC.O=S(=O)([O-])C(F)(F)C(F)(F)C(F)(F)C(F)(F)F` + O=C(O)C(F)(F)C(F)(F)C(F)(F)C(F)(F)F, for which the mass density is, setting by setting: (293.15 K, x1 = 0.333) 1400.9 kg/m3; (293.15 K, x1 = 0.5) 1351.7 kg/m3; (293.15 K, x1 = 0.667) 1306.6 kg/m3; (303.15 K, x1 = 0.5) 1341.4 kg/m3; (303.15 K, x1 = 0.667) 1298.5 kg/m3; (313.15 K, x1 = 0.5) 1331.1 kg/m3. Besides, the mass density reads like this: (313.15 K, x1 = 0.667) 1289.3 kg/m3; (323.15 K, x1 = 0.5) 1320.8 kg/m3; (323.15 K, x1 = 0.667) 1279.5 kg/m3.

Turning to `CC[n+]1ccn(C)c1.O=S(=O)([O-])C(F)(F)C(F)(F)C(F)(F)C(F)(F)C(F)(F)C(F)(F)C(F)(F)C(F)(F)F` + O=C(O)C(F)(F)C(F)(F)C(F)(F)C(F)(F)F, the mass density is recorded as 1689.3 kg/m3 (293.15 K, x1 = 0.333); 1672.1 kg/m3 (293.15 K, x1 = 0.5); 1673.9 kg/m3 (303.15 K, x1 = 0.333); 1662 kg/m3 (303.15 K, x1 = 0.5); 1673.2 kg/m3 (303.15 K, x1 = 0.667); 1656.4 kg/m3 (313.15 K, x1 = 0.333). Also, the mass density stood at 1649 kg/m3 (313.15 K, x1 = 0.5); 1660.8 kg/m3 (313.15 K, x1 = 0.667); 1635.1 kg/m3 (323.15 K, x1 = 0.5); 1647.7 kg/m3 (323.15 K, x1 = 0.667).
